Data taken from PubChem BioAssay AID504832 (National Center for Advancing Translational Sciences (NCATS), 2011).
The whole screen tested about 310,000 compounds, of which about 18,000 (5.8%) were called active. The inconclusive results got no clear call from the source; some entries with a clear call stand among them for comparison. Calls follow the shape of the dose curve; as a rule, active = well fitted inhibition curve with a large enough effect; inconclusive = small, poorly fitted or top-dose-only effect, or another doubt; inactive = no such curve, though single readings can be large or run the other way. No potency is given beside an inconclusive call; the fits are too rough.

Assay: Primary qHTS for delayed death inhibitors of the malarial parasite plastid, 48 hour incubation
Details: P. falciparum luciferase growth in erythrocytes; series mostly up to 28.7 µM
How it was run: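 First compound was added to culture medium, then infected red cells at 0.1% parasitemia and 2% hematocrit (final). After incubation at 37 C under 5% CO2, luciferase detection reagent was dispensed and light output recorded.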
Potency is read from the fitted curve at half-maximal effect; tags tell the direction and shape of the fitted curve.

Row | Compound | Potency
1 | CN(C)C(CNC(=O)C1CCN(S(=O)(=O)c2cccc(Cl)c2Cl)CC1)c1ccccc1 (stereo not given) | inconclusive [inhibitor, partial curve]
2 | Cc1ccc(/C=N/N2CCN(Cc3cccc4ccccc34)CC2)s1 | inactive
3 | O=C(NCCc1ccncc1)c1ccc2nc(Cc3cccc(Cl)c3)oc2c1 | inactive
4 | Cc1cc(Cl)cc(C)c1OCCNCc1ccccc1 | inactive
5 | Cc1nn(C2CCOC(C)(C)C2)c2c1C(c1ccc3c(c1)OCO3)SCC(=O)N2 (stereo not given) | inconclusive [inhibitor, single point]
6 | COc1ccc2nc(Cl)c(C3CC(c4ccco4)=NN3C(=O)CCC(=O)O)cc2c1 (stereo not given) | inactive
7 | CCOc1ccc(NC2=NCC(=O)N2Cc2cccs2)cc1 | inconclusive [inhibitor, partial curve, poor fit]
8 | Cc1ccc(NC(=O)Cc2ccc(Cl)c(Cl)c2)cc1S(=O)(=O)N(C)C | inactive
9 | COc1ccccc1OCCNC(=O)c1cccc(S(=O)(=O)N2CC(C)OC(C)C2)c1 (stereo not given) | inconclusive [inhibitor, single point]
10 | CCc1nnc(NC(=O)CCC(=O)N2CCN(Cc3ccccc3)CC2)s1 | inconclusive [inhibitor, partial curve, poor fit]
11 | CC(C)(C)c1ccc(OCCC(=O)Nc2ccc(N3CCOCC3)cc2N2CCOCC2)cc1 | inconclusive [inhibitor, partial curve]
12 | O=c1cccc2n1CC1CC2CN(Cc2cccc(Cl)c2Cl)C1 (stereo not given) | active: 4.65 µM
13 | O=C(COc1cccc2c1CCN(Cc1ccccc1)C2=O)N1CCCCC1 | inconclusive [inhibitor, single point]
14 | CC(OC(=O)Cc1ccc(F)cc1)C(=O)NCc1ccc2c(c1)OCO2 (stereo not given) | inactive
15 | CC1CN(/C=C/C(=O)C(F)(F)F)CC(C)O1 (stereo not given) | inconclusive [inhibitor, partial curve, poor fit]
16 | CN1CCN(c2nc(N3CCN(CCO)CC3)nc3ccccc23)CC1 | inactive
17 | C=CCOC(=O)C1=C(C)OC(N)=C(C#N)C1c1c(C)nn(-c2ccccc2)c1Cl (stereo not given) | inconclusive [inhibitor, single point]
18 | CC1=NN(c2ccc(Cl)cc2)C(=O)/C1=C\c1cccn1-c1ccc(S(N)(=O)=O)cc1 | inactive
19 | O=C1NC(=O)c2cc(NC(=O)C3COc4ccccc4O3)ccc21 (stereo not given) | inactive
20 | COc1ccc(N2CCN(C(=O)c3ccc(CNc4c(N5CCOCC5)c(=O)c4=O)cc3)CC2)cc1 | inconclusive [inhibitor, single point]
21 | COc1ccc(N(CC(=O)NCc2ccc(F)cc2)C(=O)CCC(=O)Nc2nccs2)cc1 | inactive
22 | Cc1ccc2nc(NC3=NCN(CCc4ccccc4)CN3)nc(C)c2c1 | inactive
23 | CCOC(=O)c1[nH]c2ccc(Br)cc2c1NC(=O)CCN1CCC(C(=O)OCC)CC1 | inconclusive [inhibitor, single point]

Row | Compound | Potency
24 | Cc1ccc(C(=O)N2CCC(C(=O)NC3CCCCCC3)CC2)cc1 | inconclusive [inhibitor, full curve, poor fit]
25 | C=CCSC1=C(C#N)C(c2ccccc2Cl)CC(=O)N1 (stereo not given) | inactive
26 | O=C(Cc1csc(-c2cccc(Cl)c2)n1)Nc1cccc(S(=O)(=O)NC2=NCCC2)c1 | inconclusive [inhibitor, partial curve, poor fit]
27 | CCOC(=O)c1c(NC(C)=O)sc2c(OCCN(CC)CC)c(Br)ccc12 | inconclusive [inhibitor, single point]
28 | Cc1ccnc2nc(C(=O)OCC(=O)N(CC(C)C)C3CCS(=O)(=O)C3)nn12 (stereo not given) | inconclusive [inhibitor, single point]
29 | O=C(CN(c1ccc2c(c1)OCCO2)S(=O)(=O)c1ccccc1)Nc1ccc2c(c1)OCO2 | inconclusive [inhibitor, single point]
30 | CC1CCN(S(=O)(=O)c2ccc3c(c2)CCN3C(=O)C2CCC2)CC1 | inactive
31 | COc1ccc(S(=O)(=O)N2CCCCCC2)cc1N(C)S(=O)(=O)c1ccc(C)cc1 | inactive
32 | CC(C)CNC(=O)c1ccccc1N(Cc1ccccc1)S(C)(=O)=O | inactive
33 | COc1ccc(C(=O)OC(C)C(=O)NC2CCCc3ccccc32)cc1OC (stereo not given) | inconclusive [inhibitor, single point]
34 | O=C(Nc1cc(S(=O)(=O)N2CCOCC2)ccc1Cl)c1cc(=O)c2ccccc2o1 | inconclusive [inhibitor, single point]
35 | COc1ccc(OCCC(=O)NCCN2CCOCC2)cc1 | inactive
36 | CCOC(=O)C(C(=O)NCc1ccc(F)cc1)c1ncc(C(F)(F)F)cc1Cl (stereo not given) | inconclusive [inhibitor, full curve, poor fit]
37 | O=C(NCc1cc([N+](=O)[O-])ccc1O)c1cccnc1Sc1ccccc1Cl | inconclusive [inhibitor, single point]
38 | O=C(NCCCN1CCCCC1)c1ccc(CS(=O)c2ccc(Cl)cc2)o1 (stereo not given) | inactive
39 | CC(=O)Nc1cccc(Nc2nc(-c3ccccc3F)nc3ccccc23)c1 | inactive
40 | Cc1ccc(CN(C(=O)CNC(=O)c2cccs2)C(C(=O)NCC2CCCO2)c2ccccc2)cc1 (stereo not given) | inconclusive [inhibitor, single point]
41 | CCOC(=O)C1CCCN(C(=O)c2ccc3c(=O)n(CCOC)c(=S)[nH]c3c2)C1 (stereo not given) | inconclusive [inhibitor, single point]
42 | Cc1cccn2c(=O)c(/C=C(\C#N)C(N)=O)c(Oc3ccccc3)nc12 | inconclusive [inhibitor, partial curve, poor fit]
43 | C=CCN1N=C(/C=C/c2ccc(OC)cc2)CCC1=O | inactive
44 | CCCN1CCC(=O)N([C@H](CSc2ccc(C)cc2)CC(C)C)CC1 | inconclusive [inhibitor, single point]
45 | CC(C)CC1Nc2ncnc(N3CCCCC3)c2N(Cc2ccc(Br)cc2)C1=O (stereo not given) | inconclusive [inhibitor, single point]
